We go through ten molecules from the supplement of paper PMC12423691.

B1: LMX1B, O60663 (protein)
chain: MDIATGPESLERCFPRGQTDCAKMLDGIKMEEHALRPGPATLGVLLGSDCPHPAVCEGCQRPISDRFLMRVNESSWHEECLQCAACQQALTTSCYFRDRKLYCKQDYQQLFAAKCSGCMEKIAPTEFVMRALECVYHLGCFCCCVCERQLRKGDEFVLKEGQLLCKGDYEKEKDLLSSVSPDESDSVKSEDEDGDMKPAKGQGSQSKGSGDDGKDPRRPKRPRTILTTQQRRAFKASFEVSSKPCRKVRETLAAETGLSVRVVQVWFQNQRAKMKKLARRHQQQQEQQNSQRLGQEVLSSRMEGMMASYTPLAPPQQQIVAMEQSPYGSSDPFQQGLTPPQMPGDHMNPYGNDSIFHDIDSDTSLTSLSDCFLGSSDVGSLQARVGNPIDRLYSMQSSYFAS
B2: NR1H4, Q96RI1 (protein)
chain: MVMQFQGLENPIQISPHCSCTPSGFFMEMMSMKPAKGVLTEQVAGPLGQNLEVEPYSQYSNVQFPQVQPQISSSSYYSNLGFYPQQPEEWYSPGIYELRRMPAETLYQGETEVAEMPVTKKPRMGASAGRIKGDELCVVCGDRASGYHYNALTCEGCKGFFRRSITKNAVYKCKNGGNCVMDMYMRRKCQECRLRKCKEMGMLAECMYTGLLTEIQCKSKRLRKNVKQHADQTVNEDSEGRDLRQVTSTTKSCREKTELTPDQQTLLHFIMDSYNKQRMPQEITNKILKEEFSAEENFLILTEMATNHVQVLVEFTKKLPGFQTLDHEDQIALLKGSAVEAMFLRSAEIFNKKLPSGHSDLLEERIRNSGISDEYITPMFSFYKSIGELKMTQEEYALLTAIVILSPDRQYIKDREAVEKLQEPLLDVLQKLCKIHQPENPQHFACLLGRLTELRTFNHHHAEMLMSWRVNDHKFTPLLCEIWDVQ
B3: E2F8, A0AVK6 (protein)
chain: MENEKENLFCEPHKRGLMKTPLKESTTANIVLAEIQPDFGPLTTPTKPKEGSQGEPWTPTANLKMLISAVSPEIRNRDQKRGLFDNRSGLPEAKDCIHEHLSGDEFEKSQPSRKEKSLGLLCHKFLARYPNYPNPAVNNDICLDEVAEELNVERRRIYDIVNVLESLHMVSRLAKNRYTWHGRHNLNKTLGTLKSIGEENKYAEQIMMIKKKEYEQEFDFIKSYSIEDHIIKSNTGPNGHPDMCFVELPGVEFRAASVNSRKDKSLRVMSQKFVMLFLVSTPQIVSLEVAAKILIGEDHVEDLDKSKFKTKIRRLYDIANVLSSLDLIKKVHVTEERGRKPAFKWTGPEISPNTSGSSPVIHFTPSDLEVRRSSKENCAKNLFSTRGKPNFTRHPSLIKLVKSIESDRRKINSAPSSPIKTNKAESSQNSAPFPSKMAQLAAICKMQLEEQSSESRQKVKVQLARSGPCKPVAPLDPPVNAEMELTAPSLIQPLGMVPLIPSPLSSAVPLILPQAPSGPSYAIYLQPTQAHQSVTPPQGLSPTVCTTHSSKATGSKDSTDATTEKAANDTSKASASTRPGSLLPAPERQGAKSRTREPAGERGSKRASMLEDSGSKKKFKEDLKGLENVSATLFPSGYLIPLTQCSSLGAESILSGKENSSALSPNHRIYSSPIAGVIPVTSSELTAVNFPSFHVTPLKLMVSPTSVAAVPVGNSPALASSHPVPIQNPSSAIVNFTLQHLGLISPNVQLSASPGSGIVPVSPRIESVNVAPENAGTQQGRATNYDSPVPGQSQPNGQSVAVTGAQQPVPVTPKGSQLVAESFFRTPGGPTKPTSSSCMDFEGANKTSLGTLFVPQRKLEVSTEDVH
B4: GREM1, O60565 (protein)
chain: MSRTAYTVGALLLLLGTLLPAAEGKKKGSQGAIPPPDKAQHNDSEQTQSPQQPGSRNRGRGQGRGTAMPGEEVLESSQEALHVTERKYLKRDWCKTQPLKQTIHEEGCNSRTIINRFCYGQCNSFYIPRHIRKEEGSFQSCSFCKPKKFTTMMVTLNCPELQPPTKKKRVTRVKQCRCISIDLD
B5: RHEBL1, Q8TAI7 (protein)
chain: MPLVRYRKVVILGYRCVGKTSLAHQFVEGEFSEGYDPTVENTYSKIVTLGKDEFHLHLVDTAGQDEYSILPYSFIIGVHGYVLVYSVTSLHSFQVIESLYQKLHEGHGKTRVPVVLVGNKADLSPEREVQAVEGKKLAESWGATFMESSARENQLTQGIFTKVIQEIARVENSYGQERRCHLM
B6: ANXA3, P12429 (protein)
chain: MASIWVGHRGTVRDYPDFSPSVDAEAIQKAIRGIGTDEKMLISILTERSNAQRQLIVKEYQAAYGKELKDDLKGDLSGHFEHLMVALVTPPAVFDAKQLKKSMKGAGTNEDALIEILTTRTSRQMKDISQAYYTVYKKSLGDDISSETSGDFRKALLTLADGRRDESLKVDEHLAKQDAQILYKAGENRWGTDEDKFTEILCLRSFPQLKLTFDEYRNISQKDIVDSIKGELSGHFEDLLLAIVNCVRNTPAFLAERLHRALKGIGTDEFTLNRIMVSRSEIDLLDIRTEFKKHYGYSLYSAIKSDTSGDYEITLLKICGGDD
B7: LHX1, P48742 (protein)
chain: MVHCAGCKRPILDRFLLNVLDRAWHVKCVQCCECKCNLTEKCFSREGKLYCKNDFFRCFGTKCAGCAQGISPSDLVRRARSKVFHLNCFTCMMCNKQLSTGEELYIIDENKFVCKEDYLSNSSVAKENSLHSATTGSDPSLSPDSQDPSQDDAKDSESANVSDKEAGSNENDDQNLGAKRRGPRTTIKAKQLETLKAAFAATPKPTRHIREQLAQETGLNMRVIQVWFQNRRSKERRMKQLSALGARRHAFFRSPRRMRPLVDRLEPGELIPNGPFSFYGDYQSEYYGPGGNYDFFPQGPPSSQAQTPVDLPFVPSSGPSGTPLGGLEHPLPGHHPSSEAQRFTDILAHPPGDSPSPEPSLPGPLHSMSAEVFGPSPPFSSLSVNGGASYGNHLSHPPEMNEAAVW
B8: RNF41, Q9H4P4 (protein)
chain: MGYDVTRFQGDVDEDLICPICSGVLEEPVQAPHCEHAFCNACITQWFSQQQTCPVDRSVVTVAHLRPVPRIMRNMLSKLQIACDNAVFGCSAVVRLDNLMSHLSDCEHNPKRPVTCEQGCGLEMPKDELPNHNCIKHLRSVVQQQQTRIAELEKTSAEHKHQLAEQKRDIQLLKAYMRAIRSVNPNLQNLEETIEYNEILEWVNSLQPARVTRWGGMISTPDAVLQAVIKRSLVESGCPASIVNELIENAHERSWPQGLATLETRQMNRRYYENYVAKRIPGKQAVVVMACENQHMGDDMVQEPGLVMIFAHGVEEI
B9: CARD14, Q9BXL6 (protein)
chain: MGELCRRDSALTALDEETLWEMMESHRHRIVRCICPSRLTPYLRQAKVLCQLDEEEVLHSPRLTNSAMRAGHLLDLLKTRGKNGAIAFLESLKFHNPDVYTLVTGLQPDVDFSNFSGLMETSKLTECLAGAIGSLQEELNQEKGQKEVLLRRCQQLQEHLGLAETRAEGLHQLEADHSRMKREVSAHFHEVLRLKDEMLSLSLHYSNALQEKELAASRCRSLQEELYLLKQELQRANMVSSCELELQEQSLRTASDQESGDEELNRLKEENEKLRSLTFSLAEKDILEQSLDEARGSRQELVERIHSLRERAVAAERQREQYWEEKEQTLLQFQKSKMACQLYREKVNALQAQVCELQKERDQAYSARDSAQREISQSLVEKDSLRRQVFELTDQVCELRTQLRQLQAEPPGVLKQEARTREPCPREKQRLVRMHAICPRDDSDCSLVSSTESQLLSDLSATSSRELVDSFRSSSPAPPSQQSLYKRVAEDFGEEPWSFSSCLEIPEGDPGALPGAKAGDPHLDYELLDTADLPQLESSLQPVSPGRLDVSESGVLMRRRPARRILSQVTMLAFQGDALLEQISVIGGNLTGIFIHRVTPGSAADQMALRPGTQIVMVDYEASEPLFKAVLEDTTLEEAVGLLRRVDGFCCLSVKVNTDGYKRLLQDLEAKVATSGDSFYIRVNLAMEGRAKGELQVHCNEVLHVTDTMFQGCGCWHAHRVNSYTMKDTAAHGTIPNYSRAQQQLIALIQDMTQQCTVTRKPSSGGPQKLVRIVSMDKAKASPLRLSFDRGQLDPSRMEGSSTCFWAESCLTLVPYTLVRPHRPARPRPVLLVPRAVGKILSEKLCLLQGFKKCLAEYLSQEEYEAWSQRGDIIQEGEVSGGRCWVTRHAVESLMEKNTHALLDVQLDSVCTLHRMDIFPIVIHVSVNEKMAKKLKKGLQRLGTSEEQLLEAARQEEGDLDRAPCLYSSLAPDGWSDLDGLLSCVRQAIADEQKKVVWTEQSPR
B10: PROX1, Q92786 (protein)
chain: MPDHDSTALLSRQTKRRRVDIGVKRTVGTASAFFAKARATFFSAMNPQGSEQDVEYSVVQHADGEKSNVLRKLLKRANSYEDAMMPFPGATIISQLLKNNMNKNGGTEPSFQASGLSSTGSEVHQEDICSNSSRDSPPECLSPFGRPTMSQFDMDRLCDEHLRAKRARVENIIRGMSHSPSVALRGNENEREMAPQSVSPRESYRENKRKQKLPQQQQQSFQQLVSARKEQKREERRQLKQQLEDMQKQLRQLQEKFYQIYDSTDSENDEDGNLSEDSMRSEILDARAQDSVGRSDNEMCELDPGQFIDRARALIREQEMAENKPKREGNNKERDHGPNSLQPEGKHLAETLKQELNTAMSQVVDTVVKVFSAKPSRQVPQVFPPLQIPQARFAVNGENHNFHTANQRLQCFGDVIIPNPLDTFGNVQMASSTDQTEALPLVVRKNSSDQSASGPAAGGHHQPLHQSPLSATTGFTTSTFRHPFPLPLMAYPFQSPLGAPSGSFSGKDRASPESLDLTRDTTSLRTKMSSHHLSHHPCSPAHPPSTAEGLSLSLIKSECGDLQDMSEISPYSGSAMQEGLSPNHLKKAKLMFFYTRYPSSNMLKTYFSDVKFNRCITSQLIKWFSNFREFYYIQMEKYARQAINDGVTSTEELSITRDCELYRALNMHYNKANDFEVPERFLEVAQITLREFFNAIIAGKDVDPSWKKAIYKVICKLDSEVPEIFKSPNCLQELLHE

Some of the results follow. Binding of human transcription factors and regulators to the viral nucleoprotein by AlphaScreen, crude cell-free proteins, amounts not normalised, one pass. Fold of the Venus control; higher = more signal. No active / inactive call. Single-pass screen; sequences are the whole Swiss-Prot entries looked up by name.

This experiment addresses nucleoprotein N of Crimean-Congo hemorrhagic fever virus. In words: AlphaScreen luminescence signal relative to Venus negative control (fold); higher = stronger binding to CCHFV N. The method, then: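 AlphaScreen binding of cell-free made, FLAG-GST-tagged human transcription factors and regulators (crude translation products) to biotinylated N protein; signal as fold of the FLAG-GST-Venus control. One pass.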
Regarding B1, the AlphaScreen luminescence signal is 3.49.
Next, B2: 2.28.
As for B3, the AlphaScreen luminescence signal is 2.33.
In turn, B4 returned an AlphaScreen luminescence signal of 2.33.
B5 registered an AlphaScreen luminescence signal of 1.4.
Turning to B6, the AlphaScreen luminescence signal was 1.07.
In turn, B7 yielded an AlphaScreen luminescence signal of 2.14.
Next, B8: 4.19; B9: 1.72.
Next, B10: 2.33.
